Data from publication PMC6677663, “KDM2A-dependent reduction of rRNA transcription on glucose starvation requires HP1 in cells, including triple-negative breast cancer cells” (Oncotarget, 2019).
Results are given in words; binding and its absence hold for the method and conditions named. In cells and extracts the contact can be indirect. Some binding calls cover weakened binding; strength is not graded here. Sequences can lack the tags named with a protein.

Protein sequences, listed by entry. Tags and fused reporters are not part of them.
UniProt Q13185: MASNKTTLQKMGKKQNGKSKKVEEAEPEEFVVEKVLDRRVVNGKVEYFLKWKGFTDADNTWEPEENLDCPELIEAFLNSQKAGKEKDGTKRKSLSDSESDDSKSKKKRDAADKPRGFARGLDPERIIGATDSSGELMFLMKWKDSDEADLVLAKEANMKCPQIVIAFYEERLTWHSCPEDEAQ
UniProt P45973: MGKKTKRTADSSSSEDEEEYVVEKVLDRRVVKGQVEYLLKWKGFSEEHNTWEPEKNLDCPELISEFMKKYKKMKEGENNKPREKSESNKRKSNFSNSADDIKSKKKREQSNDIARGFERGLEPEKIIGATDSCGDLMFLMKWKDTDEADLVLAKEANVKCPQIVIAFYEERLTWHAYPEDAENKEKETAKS
UniProt P83916: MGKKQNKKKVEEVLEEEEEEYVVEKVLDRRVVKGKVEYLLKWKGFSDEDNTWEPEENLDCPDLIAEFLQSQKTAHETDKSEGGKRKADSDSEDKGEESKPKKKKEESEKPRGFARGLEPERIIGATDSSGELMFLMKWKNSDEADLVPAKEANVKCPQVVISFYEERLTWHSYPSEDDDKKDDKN

B1: GFP-KDM2A (667–1162) lacking NoLS-3 (amino acids 947–1162) (domain or fragment, UniProt Q9Y2K7 667-946)
chain: PNCWECPKCYQEDSSEKAQKRKMEESDEEAVQAKVLRPLRSCDEPLTPPPHSPTSMLQLIHDPVSPRGMVTRSSPGAGPSDHHSASRDERFKRRQLLRLQATERTMVREKENNPSGKKELSEVEKAKIRGSYLTVTLQRPTKELHGTSIVPKLQAITASSANLRHSPRVLVQHCPARTPQRGDEEGLGGEEEEEEEEEEEDDSAEEGGAARLNGRGSWAQDGDESWMQREVWMSVFRYLSRRELCECMRVCKTWYKWCCDKRLWTKIDLSRCKAIVPQAL
B2: GFP-KDM2A (667–1162) lacking amino acids 818–943 (domain or fragment, UniProt Q9Y2K7)
chain: PNCWECPKCYQEDSSEKAQKRKMEESDEEAVQAKVLRPLRSCDEPLTPPPHSPTSMLQLIHDPVSPRGMVTRSSPGAGPSDHHSASRDERFKRRQLLRLQATERTMVREKENNPSGKKELSEVEKAKIRGSYLTVTLQRPTKELHGTSIVPQALSGIIKRQPVSLDLSWTNISKKQLTWLVNRLPGLKDLLLAGCSWSAVSALSTSSCPLLRTLDLRWAVGIKDPQIRDLLTPPADKPGQDNRSKLRNMTDFRLAGLDITDATLRLIIRHMPLLSRLDLSHCSHLTDQSSNLLTAVGSSTRYSLTELNMAGCNKLTDQTLIYLRRIANVTLIDLRGCKQITRKACEHFISDLSINSLYCLSDEKLIQKIS
B3: SF-KDM2A (amino acids 543–1162) (protein, UniProt Q9Y2K7 543-1162)
chain: MKPAPRLTPVRPAAASPIVSGARRRRVRCRKCKACVQGECGVCHYCRDMKKFGGPGRMKQSCVLRQCLAPRLPHSVTCSLCGEVDQNEETQDFEKKLMECCICNEIVHPGCLQMDGEGLLNEELPNCWECPKCYQEDSSEKAQKRKMEESDEEAVQAKVLRPLRSCDEPLTPPPHSPTSMLQLIHDPVSPRGMVTRSSPGAGPSDHHSASRDERFKRRQLLRLQATERTMVREKENNPSGKKELSEVEKAKIRGSYLTVTLQRPTKELHGTSIVPKLQAITASSANLRHSPRVLVQHCPARTPQRGDEEGLGGEEEEEEEEEEEDDSAEEGGAARLNGRGSWAQDGDESWMQREVWMSVFRYLSRRELCECMRVCKTWYKWCCDKRLWTKIDLSRCKAIVPQALSGIIKRQPVSLDLSWTNISKKQLTWLVNRLPGLKDLLLAGCSWSAVSALSTSSCPLLRTLDLRWAVGIKDPQIRDLLTPPADKPGQDNRSKLRNMTDFRLAGLDITDATLRLIIRHMPLLSRLDLSHCSHLTDQSSNLLTAVGSSTRYSLTELNMAGCNKLTDQTLIYLRRIANVTLIDLRGCKQITRKACEHFISDLSINSLYCLSDEKLIQKIS
B4: GFP-KDM2A (amino acids 667–1162) (domain or fragment, UniProt Q9Y2K7 667-1162)
chain: PNCWECPKCYQEDSSEKAQKRKMEESDEEAVQAKVLRPLRSCDEPLTPPPHSPTSMLQLIHDPVSPRGMVTRSSPGAGPSDHHSASRDERFKRRQLLRLQATERTMVREKENNPSGKKELSEVEKAKIRGSYLTVTLQRPTKELHGTSIVPKLQAITASSANLRHSPRVLVQHCPARTPQRGDEEGLGGEEEEEEEEEEEDDSAEEGGAARLNGRGSWAQDGDESWMQREVWMSVFRYLSRRELCECMRVCKTWYKWCCDKRLWTKIDLSRCKAIVPQALSGIIKRQPVSLDLSWTNISKKQLTWLVNRLPGLKDLLLAGCSWSAVSALSTSSCPLLRTLDLRWAVGIKDPQIRDLLTPPADKPGQDNRSKLRNMTDFRLAGLDITDATLRLIIRHMPLLSRLDLSHCSHLTDQSSNLLTAVGSSTRYSLTELNMAGCNKLTDQTLIYLRRIANVTLIDLRGCKQITRKACEHFISDLSINSLYCLSDEKLIQKIS
B5: mutant KDM2A (V801E) (protein, UniProt Q9Y2K7 1-1162)
chain: MEPEEERIRYSQRLRGTMRRRYEDDGISDDEIEGKRTFDLEEKLHTNKYNANFVTFMEGKDFNVEYIQRGGLRDPLIFKNSDGLGIKMPDPDFTVNDVKMCVGSRRMVDVMDVNTQKGIEMTMAQWTRYYETPEEEREKLYNVISLEFSHTRLENMVQRPSTVDFIDWVDNMWPRHLKESQTESTNAILEMQYPKVQKYCLMSVRGCYTDFHVDFGGTSVWYHIHQGGKVFWLIPPTAHNLELYENWLLSGKQGDIFLGDRVSDCQRIELKQGYTFVIPSGWIHAVYTPTDTLVFGGNFLHSFNIPMQLKIYNIEDRTRVPNKFRYPFYYEMCWYVLERYVYCITNRSHLTKEFQKESLSMDLELNGLESGNGDEEAVDREPRRLSSRRSVLTSPVANGVNLDYDGLGKTCRSLPSLKKTLAGDSSSDCSRGSHNGQVWDPQCAPRKDRQVHLTHFELEGLRCLVDKLESLPLHKKCVPTGIEDEDALIADVKILLEELANSDPKLALTGVPIVQWPKRDKLKFPTRPKVRVPTIPITKPHTMKPAPRLTPVRPAAASPIVSGARRRRVRCRKCKACVQGECGVCHYCRDMKKFGGPGRMKQSCVLRQCLAPRLPHSVTCSLCGEVDQNEETQDFEKKLMECCICNEIVHPGCLQMDGEGLLNEELPNCWECPKCYQEDSSEKAQKRKMEESDEEAVQAKVLRPLRSCDEPLTPPPHSPTSMLQLIHDPVSPRGMVTRSSPGAGPSDHHSASRDERFKRRQLLRLQATERTMVREKENNPSGKKELSEVEKAKIRGSYLTETLQRPTKELHGTSIVPKLQAITASSANLRHSPRVLVQHCPARTPQRGDEEGLGGEEEEEEEEEEEDDSAEEGGAARLNGRGSWAQDGDESWMQREVWMSVFRYLSRRELCECMRVCKTWYKWCCDKRLWTKIDLSRCKAIVPQALSGIIKRQPVSLDLSWTNISKKQLTWLVNRLPGLKDLLLAGCSWSAVSALSTSSCPLLRTLDLRWAVGIKDPQIRDLLTPPADKPGQDNRSKLRNMTDFRLAGLDITDATLRLIIRHMPLLSRLDLSHCSHLTDQSSNLLTAVGSSTRYSLTELNMAGCNKLTDQTLIYLRRIANVTLIDLRGCKQITRKACEHFISDLSINSLYCLSDEKLIQKIS

Legend:
Experiment in all cases: co-IP; Flag-HP1 forms co-expressed with KDM2A forms in 293T cells; lysate in 0.1% Triton X-100, 300 mM NaCl, 300 mM sucrose, 1 mM MgCl2, 1 mM EGTA, 10 mM PIPES pH 7.0; precipitated with anti-Flag agarose; Western blot with anti-KDM2A (ab99242), anti-GFP and anti-Flag
Flag-HP1γ (human) = Flag-HP1γ (human) (UniProt Q13185)
Flag-HP1α (human) = Flag-HP1α (human) (UniProt P45973)
Flag-HP1β (human) = Flag-HP1β (human) (UniProt P83916)

Binder | binding (Flag-HP1γ (human)) | binding (Flag-HP1α (human)) | binding (Flag-HP1β (human))
B1 | binds | – | –
B2 | binds | – | –
ELSEVEKAKIRGSYLTVTLQRPTKEL (domain or fragment, UniProt Q9Y2K7 785-810) [GFP fusion protein with KDM2A (amino acids 785–810)] | binds | – | –
B3 | binds | binds | binds
B4 | binds | binds | binds
ELSEVEKAKIRGSYLTETLQRPTKELHGTSIVP (domain or fragment, UniProt Q9Y2K7 785-817) [GFP fusion protein with the KDM2A fragment (amino acids 785–817, V801E)] | no binding | – | –
B5 | no binding | – | –
